Experimental data: the RNAGym collection of RNA variant scans (doi:10.1093/nar/gkz1192)
The source gives no read counts; variants with many changes may rest on few reads.

B1: CPEB3 Ribozyme (parent)
chain: UAACAGGGGGCCACAGCAGAAGCGUUCACGUCGCAGCCCCUGUCAGAUUCUGGUGAAUCUGCGAAUUCUGCUGUAUAUCUC

Variants of: B1
Experiment: self-cleavage, relative activity (ratio to wild type); higher = more cleavage; in vitro, sequencing
Procedure, shortened: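 Relative activity compares each variant's cleaved/total read fraction with that of the unmutated ribozyme. To get these fractions, barcoded CPEB3 ribozyme libraries from rounds of error-prone PCR were transcribed with T7 RNA polymerase for 5 hours at 37°C and then given 15 min of DNase I treatment before EDTA was added. The RNAs were reverse transcribed with template switching and sequenced on Illumina, and DNA sequencing linked barcodes to variants. A minimum of 5 reads applied, and three batches were averaged.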

| Variant | self-cleavage |
| --- | --- |
| CAACAGGGGGCCACGGCAGAAGCGUUCACGUCGCAGCCCCUGUCAGAUUCUGGUGAAACUGCGAAUCCUGCCGUAUAUCUC | 0.3 |
| CAACAGGGGGCCACUGCGGAAGCGUUCACGUCGCAGCCCCUGUCAGAUUCUGGUGGAUCUGCGAAUUCUGCUGUAUAUCUC | 0.53 |
| CAACAGGGGGCCACUGCAGAAGCGUUCACGUCGCAGCCCCUGUCAGAUUCUGGUGGAUCUGCGAAUCCUGCUGUAUAUCUC | 0.48 |
| CAACAGGGGGCCACUGCAGAAGCGCUCACGUCGCAGCCCCUGUCAGAUUCUGGUGAAUCUGUGAAUUCUGCUGUAUAUCUC | 0.25 |
| CAACAGGGGGCCACUGCAGAAGCGUACACGUCGCAGCCCCUGUCAGAAUCUGGCGAAUCUGCGAAUUCUGCUGUAUAUCUC | 0.05 |
| CAACAGGGGGCCACUGCAGAAGCGUUCACGCCGCAGCCCCUGUCUGAUUCUGGUGAAUCCGCGAAUUCUGCUGUAUAUCUC | 0.05 |
| CAACAGGGGGCCACUGCAGAAGCGUUCACGCCGCAGCCCCUGUCAGAUCCUGGUGAAUCUGCGAAUUCUGCUGUAUAUCUC | 0.21 |
| CAACAGGGGGCCACAGCCGAGGCGUUCUCGUCGCAGCCCCUGUCAGAUUCUGGUGAAUCUGCGAAUUCUGCUGUAUAUCUC | 0.32 |
| CAACAGGGGGCCACAGCCGAGGCGUUCACGUCGCGGCCCCUGUCAGAUUCUGGUGAAUCUGCGAAUUCUGCUGUAUAUCUU | 0.22 |
| CAACAGGGGGCCACAGCCGAAGCGUUCACGUCGCAGCCCCUGUCAGAUUCUGGUGAAUCUGCGAGAUCUGUUGCAUAUCUC | 0.06 |
| CAACAGGGGGCCACAGCCGAAGCGUUCACGUCGCAGACCCUGUCAGAUUCUGGUGAAUCCGCGAAUUCUGCCGUAUAUCUC | 0.08 |
| CAACAGGGGGCCACAGCCGAAGCGUACACGUCGCAGCCCCUGUCGGAUUCUGGAGAAUCUGCGAAUUCUACUGUAUAUCUC | 0.08 |
| CAACAGGGGGCCACAGCGGGAGCGUUCACGUCGCAGCCCCUGUCAGAUUCUGGUGAAUCUGCGAACUCUGCUGUAUAUCUC | 0.36 |
| CAACAGGGGGCCACAGCGGUAGCGUUCACGUCGCAGCCCCUGUCAGAUUCUGGUGAAUCUGCGAAUUCUGCCGUAUAUCUC | 0.06 |
| CAACAGGGGGCCACAGCGGAGGCGUUCACGUCGCAGCCCCUGUCAGAUUCAGGUGAAUCUGCUAAUUCUGCUGUAUAUCUC | 0.22 |
| CAACAGGGGGCCACAGCGGAAGCGUUCACGUCGCAGCCCCUGUCAGCUUCUGGUGAAUCCGCGAAUUCUGCUGUAUGUCGC | 0.01 |
| CAACAGGGGGCCACAGCGGAAGCGUUCACGUCGCAGCCCCUGUCAGAUUCUGGUGAAUCUGCGAAUUCUGCUGUGAAUCUC | 0.72 |

| Variant | self-cleavage |
| --- | --- |
| CAACAGGGGGCCACAGCGGAAGUGUUCACGUCGCAGCCCCUGUCAGAUUCUGGCGAAUCUGCGAAUCCUGCUGUAUAUCCC | 0.12 |
| CAACAGGGGGCCACAGCGGAAGCGUUCACGUAGCAGACCCUGUCAGAUUCUGGUGAAUCUGCGAAUUCUGCUGUAUAUCUC | 0.21 |
| CAACAGGGGGCCACAGCGGAAGCGUUCACGUUGCAGCCCCUGUCAGAUUCUGGUGAAUCUGCGAAUUCUGCUGUAUAUCUC | 0.08 |
| CAACAGGGGGCCACAGCGGAAGCGUUCACGUCGCAGCCUCUGUCAGAUUCUGGUGAGUCUGCGAAUUCUGCUGUAUAUCUC | 0.07 |
| CAACAGGGGGCCACAGCGGAAGCGUUCACGUCGCAGCCCCUGUCAGAUUGUGGUGAAUCUGCGGAUUCUGCUGUAUUUCUC | 0.1 |
| CAACAGGGGGCCACAGCGGAAGCAUUCACGUCGCAGCCCCUGUCAGAUUCUGGUGAAUCUGCGAAUUCUGCUGUAUAUCUC | 0.37 |
| CAACAGGGGGCCACAGCGGAAGCGCUCCCGUCGCAGCCCCUGUCAGUUUCUGGUGAAUCUGCGGAUUCUGCUGUAUAUCUC | 0.04 |
| CAACAGGGGGCCACAGCGGAAGCGCUCACGUCGCAGCCCAUUUCAGAUUCUGGUGAAUCUGCGAAUUCUGCUGUAUAUCCC | 0.09 |
| CAACAGGGGGCCACAGCGGAAGCGUCCACGUAGCAGACCCUGUCGGAUUCUGGUGAAUCUGCGAAUUCUGCUGUAUAUCUC | 0.05 |
| CAACAGGGGGCCACAGCGGAAGCGUCCACGUCGCAGCCCCUGUCAGAUUCAGGUGAGUCUGCGAGUUCUGCUGUAUAUCUC | 0 |
| CAACAGGGGGCCACAGCGGAAGCGUUCACGUCGCAGCCCCUGUCAGAUUCCGGUGAAUUUGCGAAUUCUGCUGUAUAUCUC | 0.2 |
| CAACAGGGGGCCACAGCGGAAGCGUUCACGUCGCAGCCCCUGUCAGAUUCUGGUGAAUCUGCGAAUUCUGCUGUACAUCUC | 0.51 |
| CAACAGGGGGCCACAGCUGCAGCGUUUACGUCGCAGCCCCUGUCAGAUUCUGGUGAAUCUGCGAAUUCUGCUGUAUAUCUC | 0.06 |
| CAACAGGGGGCCACAGCUGGAGCGUUCACGUCGCAGCCCCUGUCAGAUUCUGGUGAAUCAGCGAAUUCUGCUGUAUAUCUC | 0.23 |
| CAACAGGGGGCCACAGCUGAAGCGUUCUGGUCGCGGCCCGUGUCAGAUUCUGGUGAAUCUGCGAAUUCUGCUGUAUAUCUC | 0.14 |
| CAACAGGGGGCCACAGCUGAAGCGUUCACGUCGCAGCCCCUGUCAGAUUCUGGUGGAUCCGCGAAUUCUGCUGUAUAUCUC | 0.16 |
| CAACAGGGGGCCACAGCUGAAGCGUUCACGUCGUAGCCCCUAUCGGAUUCUGGCGAAUCUGCGAAUACUGCUGUAUAUCUC | 0.1 |
